Results on 28 compounds are retold here after PMC11995724, “Antibiotic target discovery by integrated phenotypic and activity-based profiling of electrophilic fragments” (Cell chemical biology, 2025).

Molecules are shown by their SMILES. Among all 3,200 compounds or so, about 110 (3.4%) showed an effect of 50% or more. The list shows a part of the results.

The subject of this assay is T1, V. cholerae SAD30.
T1 construct: SAD30
The arrangement: species or system S. aureus MSSA476 (TSB) or V. cholerae SAD30 (LB); 384-well bacterial growth screen at 25 uM, OD600 relative to DMSO control. The following applies: relative growth, OD600, LB; 25 µM; inhibitor.
On to `Cn1c(=O)c(C(=O)CCl)c(N)n(Cc2ccccc2)c1=O` [10-L15, 6-amino-1-benzyl-5-(2-chloroacetyl)-3-methyl-1,2,3,4-tetrahydropyrimidine-2,4-dione], for which the “% of control remaining” value worked out at 100.682%.

As for `CCn1cc(NC(=O)CCl)cn1.Cl` [6-I15, 2-chloro-N-(1-ethyl-1H-pyrazol-4-yl)acetamide hydrochloride], the “% of control remaining” value was determined as 98.4359%.

As for `O=C(CCl)NCc1ccccc1SC(F)(F)F` [7-N12, 2-chloro-N-({2-[(trifluoromethyl)sulfanyl]phenyl}methyl)acetamide], the “% of control remaining” value was 82.7358%.

For `C=CC(=O)N(C)CC(=O)Nc1ccc(N2C[C@@H](C)O[C@@H](C)C2)cc1` [3-H08, N-[({4-[(2R,6S)-2,6-dimethylmorpholin-4-yl]phenyl}carbamoyl)methyl]-N-methylprop-2-enamide], the “% of control remaining” value turned out to be 93.3248%.

Regarding `Cc1csc(Cl)c1NC(=O)CCl` [6-A06, 2-chloro-N-(2-chloro-4-methylthiophen-3-yl)acetamide], the “% of control remaining” value is given as 102.228%.

As for `O=C(CCl)C1CC12CCOCC2` (stereo not shown) [10-M15, 2-chloro-1-{6-oxaspiro[2.5]octan-1-yl}ethan-1-one], the “% of control remaining” value was 99.5909%.

Regarding `CCN(C(=O)C(C)Cl)C1CCCCC1` (stereo not shown) [5-I19, 2-chloro-N-cyclohexyl-N-ethylpropanamide], the “% of control remaining” value turned out to be 97.1735%.

Take `O=C(CCl)N1CC(S(=O)(=O)Nc2ccccc2)C1` [5-G10, 1-(2-chloroacetyl)-N-phenylazetidine-3-sulfonamide]: the “% of control remaining” value worked out at 71.283%.

As for `Cc1c(C=C(C#N)C(=O)NCc2ccccc2)cc(C#N)n1C` [9-I15, N-benzyl-2-cyano-3-(5-cyano-1,2-dimethyl-1H-pyrrol-3-yl)prop-2-enamide], the “% of control remaining” value is 88.8511%.

Consider `COc1cc(C=C(C#N)C(=O)Nc2ccc(Cl)cc2)cc(OC)c1` [8-K16, N-(4-chlorophenyl)-2-cyano-3-(3,5-dimethoxyphenyl)prop-2-enamide], for which the “% of control remaining” value was found to be 73.8953%.

Take `C=CC(=O)N(CC)CC(=O)N1CCNC(=O)C1c1cccs1` (stereo not shown) [3-G07, N-ethyl-N-{2-oxo-2-[3-oxo-2-(thiophen-2-yl)piperazin-1-yl]ethyl}prop-2-enamide]: the “% of control remaining” value came out at 95.0891%.

Turning to `CC(NC(=O)C(C#N)=Cc1cc(F)ccc1F)c1ccccc1` (stereo not shown) [8-O06, 2-cyano-3-(2,5-difluorophenyl)-N-(1-phenylethyl)prop-2-enamide], the “% of control remaining” value turned out to be 73.8953%.

For `C=CC(=O)N1C[C@H](NC(C)=O)[C@@H](c2ccnn2C)C1` (racemic) [2-M16, rac-N-[(3R,4S)-4-(1-methyl-1H-pyrazol-5-yl)-1-(prop-2-enoyl)pyrrolidin-3-yl]acetamide], the “% of control remaining” value is 91.1223%.

With `C=CC(=O)N1CCCC(c2nc(N(C)C)no2)C1` (stereo not shown) [3-A13, 1-{3-[3-(dimethylamino)-1,2,4-oxadiazol-5-yl]piperidin-1-yl}prop-2-en-1-one], the “% of control remaining” value was determined as 112.204%.

As for `C=CC(=O)N(CC)CC(=O)NC1CCN(C(C)=O)c2ccccc21` (stereo not shown) [2-N06, N-{[(1-acetyl-1,2,3,4-tetrahydroquinolin-4-yl)carbamoyl]methyl}-N-ethylprop-2-enamide], the “% of control remaining” value is given as 90.0415%.

With `Cc1cccc(C=C(C#N)C(=O)NC2CCCCC2)c1` [8-K07, 2-cyano-N-cyclohexyl-3-(3-methylphenyl)prop-2-enamide], the “% of control remaining” value is given as 72.9436%.

As to `C=CC(=O)N1CCC(C(=O)N2CCCC2COC)CC1` (stereo not shown) [2-E12, 1-{4-[2-(methoxymethyl)pyrrolidine-1-carbonyl]piperidin-1-yl}prop-2-en-1-one], the “% of control remaining” value was determined as 88.4975%.

Consider `C=CCNC(=O)C(C#N)=Cc1sccc1C` [9-P07, 2-cyano-3-(3-methylthiophen-2-yl)-N-(prop-2-en-1-yl)prop-2-enamide], for which the “% of control remaining” value was found to be 84.2284%.

For `CC(Cl)C(=O)NC(c1cccc(C(F)(F)F)c1)c1nnc[nH]1` (stereo not shown) [7-M17, 2-chloro-N-[(4H-1,2,4-triazol-3-yl)[3-(trifluoromethyl)phenyl]methyl]propanamide], the “% of control remaining” value was found to be 74.2772%.

In the case of `COC(=O)c1c(NC(=O)CCl)sc(Cl)c1-c1ccccc1` [4-E20, methyl 5-chloro-2-(2-chloroacetamido)-4-phenylthiophene-3-carboxylate], the “% of control remaining” value amounted to 86.6077%.

Consider `N#CC(=Cc1ccco1)C(=O)NCc1ccc(-c2cccnc2)cc1` [9-F16, 2-cyano-3-(furan-2-yl)-N-{[4-(pyridin-3-yl)phenyl]methyl}prop-2-enamide], for which the “% of control remaining” value came to 69.0007%.

Take `Cc1cc(C=C(C#N)C(=O)Nc2cn[nH]c2)c(C)n1-c1ccc(F)cc1` [9-N07, 2-cyano-3-[1-(4-fluorophenyl)-2,5-dimethyl-1H-pyrrol-3-yl]-N-(1H-pyrazol-4-yl)prop-2-enamide]: the “% of control remaining” value is given as 66.8253%.

Regarding `C=CC(=O)N1CCC(C(=O)N[C@H]2CCCCCC[C@H]2C(=O)OC)CC1` (racemic) [2-H06, rac-methyl (1R,2S)-2-[1-(prop-2-enoyl)piperidine-4-amido]cyclooctane-1-carboxylate], the “% of control remaining” value is recorded as 91.1223%.

As for `CC(Cl)C(=O)NCC(=O)N(C)Cc1cccnc1` (stereo not shown) [7-P15, 2-chloro-N-({methyl[(pyridin-3-yl)methyl]carbamoyl}methyl)propanamide], the “% of control remaining” value worked out at 96.0846%.

As for `Cc1ccc(C(=O)C(C)Cl)cc1` (stereo not shown) [10-F20, 2-chloro-1-(4-methylphenyl)propan-1-one], the “% of control remaining” value stood at 99.7467%.

Regarding `Cc1ccc(NC(=O)C(C#N)=Cc2ccc(C)s2)cc1` [8-K13, 2-cyano-N-(4-methylphenyl)-3-(5-methylthiophen-2-yl)prop-2-enamide], the “% of control remaining” value was determined as 72.9436%.

Take `COc1ccc(N2C(=O)C=CC2=O)c(OC)c1` [10-J15, 1-(2,4-dimethoxyphenyl)-2,5-dihydro-1H-pyrrole-2,5-dione]: the “% of control remaining” value was 26.9628%.

As to `CC(Cl)C(=O)NCc1nc2cccnc2n1C` (stereo not shown) [7-O17, 2-chloro-N-({3-methyl-3H-imidazo[4,5-b]pyridin-2-yl}methyl)propanamide], the “% of control remaining” value is given as 82.6037%.
